This note sets out measurements from ChEMBL document CHEMBL4888484, “Replenishing the malaria drug discovery pipeline: Screening and hit evaluation of the MMV Hit Generation Library 1 (HGL1) against asexual blood stage Plasmodium falciparum ,using a nano luciferase reporter read-out” (2022).

The experiment relates to Plasmodium falciparum. In words: Primary screen in NF54 nanoGlo assay, in single point, at 2uM, 72h; a lower Z score goes with more inhibition. Format: functional, Erythrocyte. As to conditions: timepoint 72 hour.

Values joined by “and” are separate entries in the source; they are usually repeats but may differ in a detail not shown here. Equal values may be shown once. The whole screen tested about 150,000 compounds, of which about 540 (0.36%) showed an effect of 50% or more. The list shows a part of the results.

Consider `CN1C(=O)[C@H](CC(=O)NCc2cccnc2-n2ccnc2)N(C)C1=O`, for which the % Inhibition (commonly the relative decrease from the control value, in per cent) was -6% and the Z score is given as 1.11.
On to `COCCCNC(=O)c1cc(NC(=O)C(C)C)cc2nc(C)n(Cc3ccccc3)c12`, for which the “% Inhibition” value was -16% and the Z score was 2.77.
The corresponding values for `C=CCN(Cc1ccccn1)Cc1cn(CC=C)nc1C` are 2% and -0.34.
The matching figures for `Cc1cc(Cn2ccc(-c3cccc(-c4cnn5cccnc45)c3)n2)no1`: -5% and 0.61.
The matching figures for `O=C(c1cnccn1)N1CC[C@@]2(CCCN(CCC3CCCCC3)C2)C1`: -7% and 0.71.
As to `Cc1cnc(-c2ccncc2)n1[C@H]1CCN(C(=O)C2CCCCC2)C1`, the “% Inhibition” value was determined as 0% and the Z score turned out to be 0.06.
The corresponding values for `CCCN1C[C@@H](Nc2ncc(F)cn2)CC1=O` are -8% and 1.6.
As to `Cc1nccn1CCCCNC(=O)N1CC(C)(C)OC(C)(C)C1`, the “% Inhibition” value is -12% and the Z score is on record as 1.26.
The corresponding values for `COc1ccc(NC(=O)Cn2cnc3nc(N4CCCCC4)ncc3c2=O)c(OC)c1` are 36% and -4.05.
As for `O=C(COCC(F)(F)C(F)F)NCc1cnn(-c2cccc(F)c2)c1`, the “% Inhibition” value is -3% and the Z score was 0.49.
The matching figures for `COCc1ccc(S(=O)(=O)Cc2nc(C3CC3)n[nH]2)cc1`: -10% and 0.85.
The matching figures for `Cc1cncnc1C1CCN(C(=O)CCNS(C)(=O)=O)CC1`: -5% and 0.73.
With `O=C(N[C@H]1CO[C@H]2[C@@H]1OC[C@@H]2Nc1nccc(-c2ccc(-c3ccccc3)cc2)n1)C1CCCCC1`, the “% Inhibition” value came to 30% and the Z score is -3.42.
With `Cc1csc(CNC(=O)N(C)Cc2cc(C)on2)n1`, the “% Inhibition” value is -2% and the Z score is 0.33.
In the case of `Cc1cc(CNc2cncc(-n3cncn3)n2)ccc1Cl`, the “% Inhibition” value is given as -19% and the Z score was found to be 3.07.
The matching figures for `CCOC(=O)c1sc(=S)n(C)c1NC(=O)c1ccccc1`: -4% and 0.53.
The corresponding values for `CC(C)c1nc(CN2C[C@@H](c3cccc(F)c3)OCC2(C)C)no1` are -12% and 1.83.
The corresponding values for `CCCc1nc(CS(=O)(=O)c2cncc(Br)c2)no1` are -1% and 0.12.
For the compound `O=C1NC[C@H]2O[C@H](CCOc3ccccc3C(=O)N3CCN(C4CCCC4)C[C@@H]13)CC[C@H]2n1cc(CN2CCOCC2)nn1`, the “% Inhibition” value came out at 17% and the Z score is listed as -2.01.
The matching figures for `CCc1ccc(C2CN3C(=O)N(c4ccccc4Cl)C(=O)[C@]3(C)c3[nH]c4ccccc4c32)cc1` (stereo not given in full): 9% and -0.76.
Turning to `c1ccc2c(c1)CCN(CCn1cccn1)C2`, the “% Inhibition” value is listed as -6% and the Z score is given as 0.79.
Take `Cc1ncccc1NC1CCCC1S(C)(=O)=O` (stereo not given): the “% Inhibition” value is listed as -17% and the Z score is given as 2.11.
With `CC(C)Cn1cc(C(=O)NC[C@H]2CCC[C@@H](CO)C2)cn1`, the “% Inhibition” value is recorded as -6% and the Z score was 0.89.
With `CCCc1nc(N2CCC(N3CCN(CC)CC3)CC2)no1`, the “% Inhibition” value was -4% and the Z score is reported as 0.56.
With `O=C(Cn1cc(-c2ccc(F)cc2)cn1)NCc1ccnc(N2CCCC2=O)c1`, the “% Inhibition” value is listed as -6% and the Z score came to 0.97.
The matching figures for `CCCc1cc(N2CCN(C(=O)COc3ccc(F)cc3)CC2)nc2nnc(C)n12`: -6% and 0.85.
The matching figures for `Nc1c2c(-c3ccc(Cl)cc3)nc(NCC3CC3)nc2nn1-c1ccc(Cl)cc1`: -18% and 1.7.
The corresponding values for `Cc1cc(C(=O)N(CC2CCC2)CC(F)(F)F)[nH]n1` are -10% and 1.63.
Turning to `O=C(NCCNc1ccccc1)c1cccc(-n2ccnn2)c1`, the “% Inhibition” value is listed as 1% and the Z score is recorded as -0.17.
The matching figures for `O=C(c1coc(COc2cccc(F)c2)n1)N1CC[C@@H]2CCCC[C@H]2C1`: -7% and 1.14.
The matching figures for `Cc1cc(NC(=O)N2CCCN(C)CC2)nn1-c1ccc(Cl)cc1`: -13% and 1.64.
The corresponding values for `CC(=O)N[C@H]1C[C@H](c2nnc(CN(C)Cc3ccc4nsnc4c3)n2C)C1` are -13% and 2.43.
As to `COc1ccc(S(=O)(=O)NC2CCN3CCCCC23)cc1Cl` (stereo not given), the “% Inhibition” value was -32% and the Z score is recorded as 3.72.
As to `O=C(NCc1csc(=O)[nH]1)[C@H]1CCCO1`, the “% Inhibition” value was -8% and the Z score is recorded as 0.98.
Consider `CCOC(=O)CCN[C@@H](C(=O)OCC)c1ccccc1`, for which the “% Inhibition” value is -8% and the Z score was 1.58.
With `CCc1nc(-c2ccccc2)nc(N2CCN(C[C@@H](O)CC)CC2)c1Cc1ccc(F)cc1`, the “% Inhibition” value is -11% and the Z score worked out at 2.07.
The matching figures for `COc1cc(NC(=O)N2CCC(Cn3ccnc3C(C)C)CC2)cc(OC)c1OC`: 0% and -0.07.
`CCc1ccc(C(=O)N2CCc3nnn(C4CC(C)C4)c3C2)cc1` (stereo not given): the “% Inhibition” value is listed as 1% and the Z score is -0.19.
The matching figures for `O=C(CCn1cncn1)Nc1ccc2c(c1)OCCO2`: -2% and 0.29.
For `O=C(Cc1ccc(O)cc1Cl)N1CC2CC=CCC2C1` (stereo not given), the “% Inhibition” value is reported as 31% and the Z score is on record as -3.47.
The corresponding values for `C[C@H](NC(=O)c1cnsn1)c1nn(C)cc1O` are -8% and 1.66.
Turning to `CNC(=O)c1nnsc1-n1cnc2ccccc21`, the “% Inhibition” value amounted to 35% and the Z score is reported as -3.99.
The corresponding values for `COc1cnc(NCc2cccc3c2OCC3)nc1` are -20% and 3.05.
In the case of `CCN(CC)C(=O)[C@@H]1CCCN1S(=O)(=O)CC(C)(C)CC#N`, the “% Inhibition” value is recorded as 19% and the Z score was -2.5.
For the compound `O=S(=O)(CC1CCCC1)NCC1(CO)CCOCC1`, the “% Inhibition” value was -10% and the Z score is on record as 1.29.
The matching figures for `Cc1ccc2c(c1)Oc1ccc(C)cc1C(N1CCCN(C(=O)Nc3cccc(Cl)c3)CC1)=N2`: 2% and -0.35.
In the case of `CC[n+]1cc(N2CCCC2)nc(-c2ccc(Br)cc2)n1`, for the setting “2 µM”, the “% Inhibition” value was -14% and -9%; the Z score was 1.22 and 1.33.
As to `Cc1cc(N(C)Cc2ccc(N)nc2)ncn1`, the “% Inhibition” value is on record as -7% and the Z score stood at 0.84.
The corresponding values for `c1csc(-c2ccnc3nc(-c4ccncc4)nn23)c1` are -12% and 1.63.
In the case of `CCN(CC)S(=O)(=O)N(C)Cc1cc(Br)ccc1F`, the “% Inhibition” value was found to be 0% and the Z score turned out to be 0.02.
As for `CN(C)c1cccc(C(=O)N2C[C@@H](CN3CCCCCC3)[C@@H](CO)C2)c1`, the “% Inhibition” value is on record as -10% and the Z score came to 1.28.
The matching figures for `COc1ccc(CNC(=O)c2sc(Nc3ccc(C)cc3C)nc2C)c(OC)c1`: 39% and -4.4.
The matching figures for `O=C1NC2(Cc3ccccc3C2)C(=O)N1CC1(c2cccc(F)c2)CC1`: -13% and 2.
The corresponding values for `CCn1cc(Cl)c(-c2nnc(-c3cccc(C(F)(F)F)c3)o2)n1` are 30% and 0.02.
Take `O=C(CCc1ccco1)Nc1ccc2c(c1)OCCCO2`: the “% Inhibition” value is given as -6% and the Z score is reported as 0.94.
On to `COc1ccc(NC(=O)c2ccccc2NC(=O)CN(C)Cc2ccc(OC)cc2OC)cc1`, for which the “% Inhibition” value is on record as -12% and the Z score is recorded as 2.28.
On to `COCCOc1ccc(-c2ccc(N(C)C)nn2)cc1`, for which the “% Inhibition” value is on record as -8% and the Z score is given as 0.96.
For the compound `COc1ccc(-c2nc(N3CCCC3)nc3nn(C)c(N)c23)cc1`, the “% Inhibition” value was -3% and the Z score was 0.48.
As to `COCCOC1CCN(Cc2cc(C(C)(C)C)[nH]n2)CC1`, the “% Inhibition” value is reported as 3% and the Z score was -0.63.
For the compound `O=C(Cn1c(-c2ccncc2)nc2ccccc21)Nc1nc2ccccc2s1`, the “% Inhibition” value was determined as 13% and the Z score is listed as -1.69.
Take `CCCN1CCN(C(=O)N[C@@H](Cc2ccccc2)c2ccccc2)CC1=O`: the “% Inhibition” value was -15% and the Z score was 2.08.
The matching figures for `O=C(NC1(c2ncon2)CCOCC1)c1cc2ccccn2c1`: -4% and 0.42.
The matching figures for `C[C@H]1COCCN1C(=O)c1n[nH]c2ccccc12`: -1% and 0.15.
With `CNS(=O)(=O)CC(=O)N(Cc1cc2c(s1)CCC2)C(C)C`, the “% Inhibition” value is listed as -15% and the Z score turned out to be 1.37.
The matching figures for `CCOC(=O)C(NC(=O)c1cccnc1OCC)C(=O)OCC`: -13% and 2.01.
The corresponding values for `Cc1c([C@H](C)NC(=O)c2cc(C3CC3)n(C)n2)cnn1C` are -7% and 1.15.
For the compound `COc1cccc(-n2nc3c(=O)n(Cc4ccccc4Cl)nc(C)c3c2C)c1`, the “% Inhibition” value was determined as 1% and the Z score is reported as -0.16.
`CCC1CN(C(=O)NC2CCCC23OCCO3)CC(C)O1` (stereo not given): the “% Inhibition” value is -1% and the Z score is listed as 0.14.
For the compound `O=C(NCc1cc2n(n1)CCCNC2)c1ccc2c3c([nH]c2c1)CCCC3`, the “% Inhibition” value is -4% and the Z score turned out to be 0.68.
The matching figures for `COc1cc2nc(C)sc2cc1NC(=O)C1C2C=CC(C2)C1C(=O)O` (stereo not given): 34% and -3.86.
As for `CCCc1cc(Nc2ccc(C(=O)NC[C@H]3CCCO3)cc2)n2nc(-c3cccnc3)nc2n1`, the “% Inhibition” value was 40% and the Z score was -5.32.
In the case of `CCc1onc(C)c1[C@@H]1CCCN1C(=O)c1ccc(C)cc1`, the “% Inhibition” value is -7% and the Z score was determined as 0.88.
For the compound `Cc1cccc(C)c1OC[C@H](N)C(C)(C)C`, the “% Inhibition” value is -3% and the Z score stood at 0.29.
For `CCCC(=O)Nc1cc(N(C)C)nc2c1CCC2`, the “% Inhibition” value is -12% and the Z score worked out at 1.77.
The matching figures for `O=C(c1cccc(-n2ccnn2)c1)N1CCC(n2ccnn2)CC1`: -4% and 0.65.
The matching figures for `CN(C)c1ccc(CNc2ncnc3sccc23)cn1`: -23% and 3.25.
On to `CCN(CC)S(=O)(=O)c1ccc(N2CCOCC2)c(NC(=O)CCC2CCCC2)c1`, for which the “% Inhibition” value is -4% and the Z score came to 0.3.
Take `Nc1nnnn1NC/C=C/c1ccc(Cl)cc1`: the “% Inhibition” value was 2% and the Z score is -0.21.
The matching figures for `COc1cccc2ncnc(N3CC(=O)N(C)[C@@H](C)C3)c12`: -5% and 0.97.
The matching figures for `CC(C)(C)OC(=O)N[C@@H]1c2ccccc2NC1(C)C`: -2% and 0.16.
The corresponding values for `O=C(NC1CC2(C1)CC2(F)F)[C@H]1NCC12CCCC2` (stereo not given in full) are -3% and 0.31.
In the case of `CCOC(=O)c1ccc(N[C@H](c2ccc(Cl)cc2)c2c(C)n(C)n(-c3ccccc3)c2=O)cc1`, the “% Inhibition” value was -2% and the Z score was 0.21.
The corresponding values for `Cc1cc(C(=O)N(Cc2cocn2)Cc2cocn2)nc(C)n1` are -10% and 1.77.
As to `COc1cc(CNc2nc3ccccc3n2CCN2CCOCC2)cc(OC)c1OC`, the “% Inhibition” value is -14% and the Z score is recorded as 1.25.
The matching figures for `N#Cc1c(N2CCCC2)ncnc1N1CCN(c2ccccn2)CC1`: -12% and 1.2.
